Measurements as given in US8475804B2 (priority 2009, dated 2013).
Structures can show the parent of a compound that is named as a salt. Where two headings read alike, the source gives them in different places.

Assays:
Ebola virus [1] = test: microbe, parasite or virus in culture; format: cell-based, Ebolavirus (EBOV); conditions: Zaire ebolavirus; for IC50: HepG2, read-out: IC50 (μM) HepG2
Ebola virus [2] = test: microbe, parasite or virus in culture; format: cell-based, Ebolavirus (EBOV)
[3] = Zaire ebolavirus, Vero, read-out: IC50 (μM) Vero
[4] = Zaire ebolavirus, Vero, read-out: Max Effect

| SMILES | IC50 (Ebola virus [1]) [µM] | IC50 (Ebola virus [2]; Zaire ebolavirus, Vero) [µM] | IC50 (Ebola virus [2]; [3]) [µM] | other results |
| --- | --- | --- | --- | --- |
| O=C1CCc2ccc(OCCCCN3CCN(c4cccc(Cl)c4Cl)CC3)cc2N1 [Aripiprazole] | 3.8 | 7.5 | 20 | – |
| COc1ccc(CCN2CCC(Nc3nc4ccccc4n3Cc3ccc(F)cc3)CC2)cc1 [Astemizole] | 1.4 | 4.3 | 6.2 | – |
| CN1[C@@H]2CC[C@H]1C[C@@H](OC(c1ccccc1)c1ccccc1)C2 [Benztropine Mesylate] | 2.6 | 3.7 | 8 | – |
| CN1CCC[C@@H]1CCO[C@](C)(c1ccccc1)c1ccc(Cl)cc1 [Clemastine Fumarate] | 0.65 | 4 | 5.4 | Emax (Ebola virus [1]; HepG2, read-out: Max Effect HepG2): 93.3%; Max Effect (Ebola virus [2]): 0.850; Emax (Ebola virus [2]; Zaire ebolavirus, Vero, read-out: Max Effect Vero): 95.8% |
| CN1CCC[C@@H]1CCO[C@](C)(c1ccccc1)c1ccc(Cl)cc1 [Clemastine] | – | – | – | IC50 (Ebola virus [2]): 2.9 µM; Max Effect (Ebola virus [2]): 0.525 |
| CCN(CC)CCOc1ccc(/C(=C(\Cl)c2ccccc2)c2ccccc2)cc1 [Clomiphene Citrate] | 0.76 | – | 2.4 | – |
| CN(C)CCCN1c2ccccc2CCc2ccc(Cl)cc21 [Clomipramine Hydrochloride] | 2.6 | 6.3 | 11.3 | – |
| Clc1ccc2c(c1)CCc1cccnc1C2=C1CCNCC1 [Desloratadine] | – | – | – | Emax (Ebola virus [2]; [4]): 43% |
| CCN(CC)CCOC(=O)C1(C2CCCCC2)CCCCC1 [Dicyclomine Hydrochloride] | – | 5.7 | – | Emax (Ebola virus [2]; [4]): 59.6% |
| OCCN1CCN(CCCN2c3ccccc3Sc3ccc(C(F)(F)F)cc32)CC1 [Fluphenazine Hydrochloride] | 3 | 4.2 | 5.5 | – |
| CN(C)C(=O)C(CCN1CCC(O)(c2ccc(Cl)cc2)CC1)(c1ccccc1)c1ccccc1 [Loperamide] | – | 5.5 | – | – |
| CNCCCC12CCC(c3ccccc31)c1ccccc12 [Maprotiline Hydrochloride] | 2.9 | 7.6 | 9.6 | – |
| Clc1ccc(CO/N=C(\Cn2ccnc2)c2ccc(Cl)cc2Cl)c(Cl)c1 [Oxiconazole Nitrate] | – | – | – | Emax (Ebola virus [2]; [4]): 41.1% |
| CN1CCN(CCCN2c3ccccc3Sc3ccc(Cl)cc32)CC1 [Prochlorperazine Edisylate] | 3.6 | 5.2 | 5.9 | – |
| Clc1ccc(CSC(Cn2ccnc2)c2ccc(Cl)cc2Cl)cc1 (stereo not drawn) [Sulconazole Nitrate] | – | 4.1 | – | Emax (Ebola virus [2]; [4]): 90.4% |
| CC/C(=C(\c1ccccc1)c1ccc(OCCN(C)C)cc1)c1ccccc1 [Tamoxifen Citrate] | – | – | – | IC50 (Ebola virus [2]): 1.7 µM |
